The supplement of paper PMC12067093, “Discovery and optimisation of a covalent ligand for TRIM25 and its application to targeted protein ubiquitination” (Chemical Science, 2025)
The full data set covers some 21,000 targets. This sample favours those with the largest changes.
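Note: competitive chemoproteomic profiling in live THP-1 cells with an iodoacetamide desthiobiotin (IA-DTB) probe, comparing probe-labelled peptide intensities in compound-treated cells against DMSO-treated controls.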

Sequence of UniProt Q15058 (Q15058 whole entry, looked up): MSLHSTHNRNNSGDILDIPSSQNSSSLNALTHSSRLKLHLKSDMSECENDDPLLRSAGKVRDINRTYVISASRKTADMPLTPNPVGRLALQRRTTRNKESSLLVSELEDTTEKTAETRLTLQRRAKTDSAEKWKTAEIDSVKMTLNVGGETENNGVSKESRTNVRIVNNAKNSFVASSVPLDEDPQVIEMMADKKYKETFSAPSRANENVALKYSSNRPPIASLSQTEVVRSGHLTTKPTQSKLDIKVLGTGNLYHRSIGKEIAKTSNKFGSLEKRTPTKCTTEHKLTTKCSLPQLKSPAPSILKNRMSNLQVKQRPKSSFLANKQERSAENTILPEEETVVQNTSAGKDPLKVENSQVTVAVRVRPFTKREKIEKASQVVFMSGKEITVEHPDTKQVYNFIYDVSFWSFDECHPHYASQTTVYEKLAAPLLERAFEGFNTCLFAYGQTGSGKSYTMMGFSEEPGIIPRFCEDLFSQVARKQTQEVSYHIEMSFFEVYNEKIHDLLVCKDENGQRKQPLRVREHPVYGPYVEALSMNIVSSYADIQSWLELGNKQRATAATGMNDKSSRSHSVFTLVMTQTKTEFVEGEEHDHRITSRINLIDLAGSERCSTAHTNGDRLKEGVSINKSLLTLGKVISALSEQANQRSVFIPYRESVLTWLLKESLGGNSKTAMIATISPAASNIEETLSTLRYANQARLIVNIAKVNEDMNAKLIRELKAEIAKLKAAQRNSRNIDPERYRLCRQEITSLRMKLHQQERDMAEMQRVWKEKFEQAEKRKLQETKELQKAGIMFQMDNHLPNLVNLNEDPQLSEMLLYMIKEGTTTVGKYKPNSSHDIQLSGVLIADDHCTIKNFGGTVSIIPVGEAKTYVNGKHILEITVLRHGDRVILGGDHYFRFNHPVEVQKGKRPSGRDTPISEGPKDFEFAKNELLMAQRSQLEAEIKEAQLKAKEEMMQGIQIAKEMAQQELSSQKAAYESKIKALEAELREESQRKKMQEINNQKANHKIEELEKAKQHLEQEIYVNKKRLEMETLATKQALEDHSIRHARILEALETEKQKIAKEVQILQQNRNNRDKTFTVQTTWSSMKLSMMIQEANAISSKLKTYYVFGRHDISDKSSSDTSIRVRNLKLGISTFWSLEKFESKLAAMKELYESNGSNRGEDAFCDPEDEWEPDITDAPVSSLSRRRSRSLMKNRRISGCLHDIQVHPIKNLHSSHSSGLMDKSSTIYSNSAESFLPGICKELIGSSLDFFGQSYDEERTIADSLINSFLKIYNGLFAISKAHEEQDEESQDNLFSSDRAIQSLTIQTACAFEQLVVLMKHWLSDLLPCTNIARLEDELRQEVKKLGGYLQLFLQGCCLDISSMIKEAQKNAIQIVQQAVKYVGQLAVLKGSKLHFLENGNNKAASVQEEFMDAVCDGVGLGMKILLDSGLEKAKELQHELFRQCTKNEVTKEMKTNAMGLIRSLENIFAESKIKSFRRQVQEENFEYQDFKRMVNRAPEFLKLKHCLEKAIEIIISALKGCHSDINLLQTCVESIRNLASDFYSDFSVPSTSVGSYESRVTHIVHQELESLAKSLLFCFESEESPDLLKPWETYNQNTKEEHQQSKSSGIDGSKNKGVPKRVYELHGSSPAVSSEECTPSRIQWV
Sequence of UniProt Q8IWB1 (Q8IWB1 whole entry): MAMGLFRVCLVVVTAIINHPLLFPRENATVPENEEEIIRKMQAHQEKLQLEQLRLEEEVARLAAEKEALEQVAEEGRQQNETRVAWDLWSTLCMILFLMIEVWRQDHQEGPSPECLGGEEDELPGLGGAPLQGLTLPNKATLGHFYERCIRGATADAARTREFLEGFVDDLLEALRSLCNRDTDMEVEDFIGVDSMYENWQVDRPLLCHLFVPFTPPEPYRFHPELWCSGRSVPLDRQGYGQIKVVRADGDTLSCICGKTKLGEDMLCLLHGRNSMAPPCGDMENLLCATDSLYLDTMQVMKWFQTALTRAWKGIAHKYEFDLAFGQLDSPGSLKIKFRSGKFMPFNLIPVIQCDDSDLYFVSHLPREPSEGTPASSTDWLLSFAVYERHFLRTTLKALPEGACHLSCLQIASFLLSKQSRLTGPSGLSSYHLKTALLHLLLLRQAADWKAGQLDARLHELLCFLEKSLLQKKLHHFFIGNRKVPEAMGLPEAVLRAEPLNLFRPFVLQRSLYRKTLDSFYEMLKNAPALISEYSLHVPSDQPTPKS
Sequence of UniProt Q13683 (Q13683 whole entry): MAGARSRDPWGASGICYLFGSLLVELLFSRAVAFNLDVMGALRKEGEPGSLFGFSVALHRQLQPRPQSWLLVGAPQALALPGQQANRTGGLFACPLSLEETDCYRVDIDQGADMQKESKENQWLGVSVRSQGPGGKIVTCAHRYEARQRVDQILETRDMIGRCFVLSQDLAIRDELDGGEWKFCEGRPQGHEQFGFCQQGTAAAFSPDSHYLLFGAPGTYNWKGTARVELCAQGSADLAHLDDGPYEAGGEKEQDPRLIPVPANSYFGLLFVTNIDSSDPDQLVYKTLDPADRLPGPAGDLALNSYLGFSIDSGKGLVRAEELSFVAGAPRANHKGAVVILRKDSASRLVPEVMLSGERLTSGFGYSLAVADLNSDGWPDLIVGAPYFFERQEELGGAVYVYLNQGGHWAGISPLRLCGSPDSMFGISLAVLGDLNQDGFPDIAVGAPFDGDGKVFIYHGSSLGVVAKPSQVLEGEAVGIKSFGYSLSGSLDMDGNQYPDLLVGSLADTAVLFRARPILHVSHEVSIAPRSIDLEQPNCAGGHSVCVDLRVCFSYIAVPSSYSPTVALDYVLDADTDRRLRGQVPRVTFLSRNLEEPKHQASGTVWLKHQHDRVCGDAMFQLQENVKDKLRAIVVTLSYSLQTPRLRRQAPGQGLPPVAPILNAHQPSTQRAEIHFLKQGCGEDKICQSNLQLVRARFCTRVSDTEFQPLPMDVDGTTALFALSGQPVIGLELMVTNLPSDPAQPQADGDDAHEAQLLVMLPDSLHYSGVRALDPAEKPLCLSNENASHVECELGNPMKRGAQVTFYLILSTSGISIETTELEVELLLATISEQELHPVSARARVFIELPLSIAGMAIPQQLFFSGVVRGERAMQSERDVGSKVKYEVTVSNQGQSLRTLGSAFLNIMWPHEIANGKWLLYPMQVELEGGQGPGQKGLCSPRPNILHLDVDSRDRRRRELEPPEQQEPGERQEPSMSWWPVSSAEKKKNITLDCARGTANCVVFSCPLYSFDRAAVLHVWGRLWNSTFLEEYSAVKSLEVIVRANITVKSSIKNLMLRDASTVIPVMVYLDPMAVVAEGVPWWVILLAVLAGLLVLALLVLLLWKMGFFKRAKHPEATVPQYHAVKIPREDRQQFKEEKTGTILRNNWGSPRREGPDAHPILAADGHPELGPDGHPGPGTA
Sequence of UniProt Q9NXV2 (Q9NXV2 whole entry, looked up): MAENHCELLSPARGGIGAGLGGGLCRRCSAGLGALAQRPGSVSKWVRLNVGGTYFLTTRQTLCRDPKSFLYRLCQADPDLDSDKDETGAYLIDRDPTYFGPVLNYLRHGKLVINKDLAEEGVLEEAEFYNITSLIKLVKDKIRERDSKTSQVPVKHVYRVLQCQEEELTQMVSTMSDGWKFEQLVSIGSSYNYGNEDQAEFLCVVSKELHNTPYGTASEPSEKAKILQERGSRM
Sequence of UniProt Q2M2Z5 (Q2M2Z5 whole entry, looked up): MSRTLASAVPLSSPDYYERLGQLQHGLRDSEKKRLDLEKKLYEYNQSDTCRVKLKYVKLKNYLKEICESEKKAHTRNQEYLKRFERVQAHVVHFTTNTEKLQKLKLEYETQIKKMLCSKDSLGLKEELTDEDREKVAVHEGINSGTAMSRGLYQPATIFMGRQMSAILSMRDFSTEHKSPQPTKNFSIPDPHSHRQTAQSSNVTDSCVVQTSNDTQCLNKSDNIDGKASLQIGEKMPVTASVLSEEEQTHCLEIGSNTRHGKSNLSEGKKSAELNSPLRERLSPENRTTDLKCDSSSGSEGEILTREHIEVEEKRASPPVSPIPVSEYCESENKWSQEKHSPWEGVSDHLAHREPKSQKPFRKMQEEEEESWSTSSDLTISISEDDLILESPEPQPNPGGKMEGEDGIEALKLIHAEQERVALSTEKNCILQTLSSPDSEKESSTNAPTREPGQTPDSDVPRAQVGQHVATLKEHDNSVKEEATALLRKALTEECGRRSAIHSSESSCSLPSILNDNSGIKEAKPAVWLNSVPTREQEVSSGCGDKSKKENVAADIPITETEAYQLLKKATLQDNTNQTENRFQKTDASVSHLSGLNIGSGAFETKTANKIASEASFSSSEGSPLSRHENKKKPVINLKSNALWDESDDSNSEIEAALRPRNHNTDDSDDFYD
Sequence of UniProt Q0D2K2 (Q0D2K2 whole entry): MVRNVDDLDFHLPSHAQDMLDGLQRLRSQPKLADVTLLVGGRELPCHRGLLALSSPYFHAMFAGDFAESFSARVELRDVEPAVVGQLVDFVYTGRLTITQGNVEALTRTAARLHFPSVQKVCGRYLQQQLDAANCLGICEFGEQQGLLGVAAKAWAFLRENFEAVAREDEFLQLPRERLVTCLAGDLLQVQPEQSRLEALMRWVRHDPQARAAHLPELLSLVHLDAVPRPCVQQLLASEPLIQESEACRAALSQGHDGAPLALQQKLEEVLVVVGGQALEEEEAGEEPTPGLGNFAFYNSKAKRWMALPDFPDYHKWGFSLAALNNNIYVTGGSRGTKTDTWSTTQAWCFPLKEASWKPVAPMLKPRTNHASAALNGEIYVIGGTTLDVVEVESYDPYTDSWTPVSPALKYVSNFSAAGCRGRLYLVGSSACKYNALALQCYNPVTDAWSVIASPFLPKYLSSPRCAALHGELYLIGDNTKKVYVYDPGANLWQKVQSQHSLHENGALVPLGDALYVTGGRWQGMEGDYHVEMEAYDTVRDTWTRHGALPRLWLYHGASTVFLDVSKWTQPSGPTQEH
Sequence of UniProt Q3MHD2 (Q3MHD2 whole entry, looked up): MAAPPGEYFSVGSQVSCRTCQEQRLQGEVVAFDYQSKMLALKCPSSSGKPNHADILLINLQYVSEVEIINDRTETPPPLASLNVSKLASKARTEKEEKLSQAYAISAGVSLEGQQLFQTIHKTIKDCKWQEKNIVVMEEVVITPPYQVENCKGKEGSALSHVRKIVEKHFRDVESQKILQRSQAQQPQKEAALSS

What follows are targets tested with CC1Cc2ccccc2N1C(=O)C1CCCN(C1)C(=O)CCl (mixture of isomers) [TRIM25 ligand 11 (diastereomer mixture)] (assay: probe-labelled cysteine peptide fold change vs DMSO (competition) (log2 fold change); higher = less target engagement (more negative = stronger competition)). Conditions: 10 µM; THP-1; incubation time: 4 h.
With “LMAN1_P49257_190_NNPAIVIIGNNGQIHYDHQNDGASQALASCQR (UniProt P49257)” the “probe-labelled cysteine peptide fold change” value was 0.0166. For “JAK1_P23458_716_DLVHGNVCTK (UniProt P23458)”, the “probe-labelled cysteine peptide fold change” value was -0.0532. In the case of “KIZ_Q2M2Z5_293_CDSSSGSEGEILTR (UniProt Q2M2Z5)”, the “probe-labelled cysteine peptide fold change” value is reported as 0.602. With “ITGB1_P05556_500_HCECSTDEVNSEDMDAYCR (UniProt P05556)” the “probe-labelled cysteine peptide fold change” value was 0.0825. In the case of “KCTD5_Q9NXV2_6_AENHCELLSPAR (UniProt Q9NXV2)”, the “probe-labelled cysteine peptide fold change” value is reported as -0.123. “ITGA7_Q13683_539+546_SIDLEQPNCAGGHSVCVDLR (UniProt Q13683)” was tested, and the “probe-labelled cysteine peptide fold change” value was -0.34. With “KLC1_Q07866_236_YEVAVPLCK (UniProt Q07866)” the “probe-labelled cysteine peptide fold change” value was 0.0852. For LSM12_Q3MHD2_20_TCQEQR (UniProt Q3MHD2), the “probe-labelled cysteine peptide fold change” value was 0.578. For “LIMA1_Q9UHB6_414_LLANQQVFHISCFR (UniProt Q9UHB6)”, the “probe-labelled cysteine peptide fold change” value was 0.25. For “KLHL30_Q0D2K2_231_AAHLPELLSLVHLDAVPRPCVQQLLASEPLIQESEACR (UniProt Q0D2K2)”, the “probe-labelled cysteine peptide fold change” value was -0.0164. For “ITGB1_P05556_574_SNGLICGGNGVCK (UniProt P05556)”, the “probe-labelled cysteine peptide fold change” value was 0.0213. With “LRPPRC_P42704_571_YCQEPR (UniProt P42704)” the “probe-labelled cysteine peptide fold change” value was 0.0453. In the case of “KIF14_Q15058_850_YKPNSSHDIQLSGVLIADDHCTIK (UniProt Q15058)”, the “probe-labelled cysteine peptide fold change” value is reported as 0.209. For “ITPRIP_Q8IWB1_268_LGEDMLCLLHGR (UniProt Q8IWB1)”, the “probe-labelled cysteine peptide fold change” value was -0.0198. For “LPCAT4_Q643R3_206_WPQVLFFPEGTCSNKK (UniProt Q643R3)”, the “probe-labelled cysteine peptide fold change” value was 0.0291. “IFI16_Q16666_351_MDVVGTGQCHNIPCEEGDK (UniProt Q16666)” was tested, and the “probe-labelled cysteine peptide fold change” value was 0.255.
